Inconclusive means that the source gave no clear call. Such entries were picked first, then a sample of the others. For part of these data: Potencies of inconclusive entries are doubtful fits and often do not repeat. Active and inactive are the calls of the source. Calls come from the whole dose curve; as a rule, active = well fitted curve in the direction sought with a large enough effect; inconclusive = small, poorly fitted or top-dose-only effect, or another doubt; inactive = no such curve, though single readings can be large; an effect the other way counts as inactive or inconclusive.
Experiments:
[1] = Primary qHTS for inhibitors of nuclear receptor binding SET domain protein 2 (NSD2) in an isogenic RCH-ACV NSD2 p.E1099K mutant (9B) (AID 1645876); note: potency is the fitted concentration of half-maximal effect; nearly all actives have a fitted effect of over 70% in size
[2] = Primary qHTS for inhibitors of nuclear receptor binding SET domain protein 2 (NSD2) in an RCH-ACV wild type WT cells (2C) (AID 1645877); settings: activity change, negative = cell killing: at 44.9 µM (top of the series) unless noted; note: potency is the fitted concentration of half-maximal effect; nearly all actives have a fitted effect of over 70% in size
[3] = Primary redox qHTS assay for identification of artifact compounds. (AID 1845223); settings: Amplex Red/HRP redox cycling with DTT, fluorescence; redox activity (% of DA3003): at 53.8 µM (top of the series); note: potency is the fitted concentration of half-maximal effect
Outline: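 Redox-cycling detection via DTT (250 uM final) oxidation coupled to Amplex Red (25 uM)/HRP (250 mU/mL) in HBSS. 15 min preincubation plus 30 min after DTT, room temperature. Ex/Em 525/598 nm; 4-parameter Hill fit against DMSO and 10 uM DA3003.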

[4] = test system: CRL-7250; test: Cytotoxic Profiling of Annotated Libraries Using Quantitative High-Throughput Screening (AID 1296008); settings: Five cell lines viability, CellTiter-Glo ATP luminescence, 48-72 h; max response: hits give low values; note: nearly all actives have a fitted effect of over 60% in size; note: potency is the fitted concentration of half-maximal effect; for max response: % is set by controls: 0 for no effect and ±100 for the full control effect
Outline: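 Compounds were pin-transferred onto cells and incubated 48 or 72 hr at 37 degree Celsius, 95% humidity. CellTiter-Glo was added, plates sat 10 min at room temperature, then ATP-coupled luminescence was imaged as the viability read-out.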

[5] = test system: CAOV3; test: Primary qHTS to identify gynecologic anti-cancer compounds using libraries of approved drugs and bioactive compounds (AID 1345084); settings: Gynecologic cancer cell panel viability, ATPlite luminescence, 48 h; activity change, negative = cytotoxicity: at 57.5 µM (top of the series); note: nearly all actives have a fitted effect of over 55% in size; note: potency is the fitted concentration of half-maximal effect; for activity change, negative = cytotoxicity: % is set by controls: 0 for no effect and ±100 for the full control effect
Outline: (§1)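 Five-point cytotoxicity, 48 h drug exposure at 37 C, 5% CO2, on cells seeded 16 h beforehand. ATP content read by ATPlite luminescence.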

[6] = Primary fluorescence-based thiol-reactive (MSTI) qHTS assay for identification of artifact compounds. (AID 1845221);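 note: thiol-reactive compounds lower the probe fluorescence signal; nearly all actives have a fitted effect of over 65% in size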
Outline: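 Thiol-reactive compounds detected by quenching of 4 uM MSTI fluorescence (525/598 nm) after 1 h room-temperature dark incubation in PBS pH 7.4, 2% DMSO. qHTS titration; percent inhibition Hill-fitted against Acetyl-MSTI/MSTI controls.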

[7] = test system: SKOV3; test: Primary qHTS to identify gynecologic anti-cancer compounds using libraries of approved drugs and bioactive compounds (AID 1345084); settings: Gynecologic cancer cell panel viability, ATPlite luminescence, 48 h; series mostly up to 57.5 µM; note: nearly all actives have a fitted effect of over 55% in size; note: potency is the fitted concentration of half-maximal effect; for activity change, negative = cytotoxicity: % is set by controls: 0 for no effect and ±100 for the full control effect
Outline: as §1
Tags give direction and shape of the fitted curve.

Compound: CC(CCC1(O)OC2CC3C4CC=C5C[C@@H](O[C@@H]6O[C@H](CO)[C@@H](O[C@@H]7O[C@@H](C)[C@H](O)[C@@H](O)[C@H]7O)[C@H](O)[C@H]6O[C@@H]6O[C@@H](C)[C@H](O)[C@@H](O)[C@H]6O)CC[C@]5(C)C4CC[C@]3(C)[C@@]2(O)[C@@H]1C)CO[C@@H]1O[C@H](CO)[C@@H](O)[C@H](O)[C@H]1O (some centres undefined)
- Potency [1]: inconclusive: 5.48 µM [inhibitor, single point]
- Potency [2]: inconclusive: 4.88 µM [inhibitor, single point]
- Potency [3]: inconclusive: 4.01 µM [activator, partial curve]
- Potency [4]: inconclusive: 6.93 µM [inhibitor, single point]
- Potency [5]: active: 1 µM

Compound: C=CC(C)(O)CC/C=C(\C)C(=O)O[C@@H]1[C@@H](O)[C@H](OC(C)(C=C)CC/C=C(\C)C(=O)O[C@@H]2O[C@H](CO)[C@@H](O)[C@H](O)[C@H]2O)O[C@H](CO)[C@H]1OC(=O)/C(C)=C/CCC(C)(O)C=C (some centres undefined)
- activity change, negative = thiol reactive [6]: inactive: 71.6% [at 11.5 µM]
- max response [4]: inactive: 1.38%
- activity change, negative = cytotoxicity [5]: inactive: -0.925% [at 11.6 µM]
- activity change, negative = cytotoxicity [7]: inactive: -0.696% [at 11.6 µM]

Source: PubChem BioAssay (NCATS)
